Drawing on the supplement of paper PMC7580552, this text covers planktonic growth for 20 compounds.

SMILES strings stand for the structures. Where a name gives a salt, the structure may show the parent alone. This is one part of the list. Single values are uncertain, as repeats are few or missing.
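Also: stationary (unshaken) cultures in 96-well plates, started at OD600 0.05 from mid-exponential cells, with compounds supplied from DMSO stocks.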

For this test, the system named is Escherichia coli W3110. In words: planktonic growth (OD600) relative to untreated control; higher = more growth. To be noted: 10 µM; 20-24 h; 30 °C; TB.
On to `CN1CCC(=C2c3ccccc3CC(=O)c3sccc32)CC1` [Ketotifen fumarate], for which the planktonic growth was 94%.
Compound `CN1CCCC(CC2c3ccccc3Sc3ccccc32)C1` (stereo not given) [Metixene hydrochloride] gave a planktonic growth of 95%.
The value for `COc1ccccc1N1CCN(CC(O)COc2cccc3ccccc23)CC1` (stereo not given) [Naftopidil dihydrochloride] was 99%; that for `Cn1c(=O)c2c(ncn2CC(=O)O)n(C)c1=O` [Acefylline] was 97%.
The value for `CO[C@H]1C[C@H](O[C@H]2[C@H](C)[C@@H](O[C@@H]3O[C@H](C)C[C@H](N(C)C)[C@H]3OC(C)=O)[C@@H](C)C[C@@]3(CO3)C(=O)[C@H](C)[C@@H](OC(C)=O)[C@@H](C)[C@@H](C)OC(=O)[C@@H]2C)O[C@@H](C)[C@@H]1OC(C)=O` [Troleandomycin] was 98%; that for `Cc1cc(C(=O)NNCc2ccccc2)no1` [Isocarboxazid] was 96%; that for `CC(C)(Oc1ccc(Cl)cc1)C(=O)O` [Clofibric acid] was 90%.
The value for `CN(C)CC/C=C1\c2ccccc2CSc2ccccc21` [Dosulepin hydrochloride] was 104%; that for `CC1CCc2c(N3CCC(O)CC3)c(F)cc3c(=O)c(C(=O)O)cn1c23` (stereo not given) [Nadifloxacin] was 35%.
The compound `Cc1ccc(-c2ncc(Cl)cc2-c2ccc(S(C)(=O)=O)cc2)cn1` [Etoricoxib] had a planktonic growth of 102%.
The value for `NC12CC3CC(CC(C3)C1)C2` [Adamantamine fumarate] was 103%; that for `Cc1cc(=O)n(-c2ccccc2)n1C` [Antipyrine] was 97%.
The value for `Clc1ccc(COC(Cn2ccnc2)c2ccc(Cl)cc2Cl)c(Cl)c1` (stereo not given) [Miconazole] was 79%.
The value for `CN1CCN(C2=Nc3cc(Cl)ccc3Nc3ccccc32)CC1` [Clozapine] was 96%; that for `C[C@@H]1NC(=O)NC1=O` [Methylhydantoin-5-(L)] was 95%.
Turning to `CCOC(=O)C(C)(C)Oc1ccc(Cl)cc1` [Clofibrate], the planktonic growth worked out at 110%.
The value for `CO[C@@]1(NC(=O)CSCC#N)C(=O)N2C(C(=O)O)=C(CSc3nnnn3C)CS[C@@H]21` [Cefmetazole sodium salt] was 18%; that for `C[C@@H]1[C@H](O)[C@@H](C)/C=C/C=C/C=C/C=C/C=C/C=C/C=C/[C@H](O[C@@H]2O[C@H](C)[C@@H](O)[C@H](N)[C@@H]2O)C[C@@H]2O[C@](O)(C[C@@H](O)C[C@@H](O)[C@H](O)CC[C@@H](O)C[C@@H](O)CC(=O)O[C@H]1C)C[C@H](O)[C@H]2C(=O)O` [Amphotericin B] was 118%; that for `CCC(Cc1c(I)cc(I)c(N)c1I)C(=O)O` (stereo not given) [Iopanoic acid] was 93%.
As to `CCC(NC(C)C)C(O)c1ccc(O)c(O)c1` (stereo not given) [Isoetharine mesylate salt], the planktonic growth worked out at 94%.
